Experimental data: PubChem BioAssay AID652104 (National Center for Advancing Translational Sciences (NCATS), 2013)
About 7,200 (1.8%) of roughly 410,000 compounds were called active. Inconclusive results, whose numbers are uncertain, are shown with a selection of clear calls. The call rests on the fitted dose curve; in most records, active means well fitted activation curve with a large enough effect; inconclusive means small, poorly fitted or top-dose-only effect, or another doubt; inactive means no such curve, though single readings can be large or run the other way. A potency beside an inconclusive call is a rough fit, not a confirmed value.

test: qHTS of TDP-43 Inhibitors; settings: TDP-43 expressing yeast growth rescue, BacTiter-Glo, 24 h; growth rescue (activation): at 46.1 µM (top of the series) unless noted; further: nearly all actives have a fitted effect of over 50% in size; on growth rescue (activation): % of control where 0% means no effect
Summary of the method: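 Luminescence from BacTiter-Glo reports growth of TDP-43-expressing yeast after 24 hr at 30 deg C with compound. Cells were raffinose-pregrown to mid-log, then seeded in galactose medium at OD600=0.02.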
Potency means the concentration at half of the fitted maximal effect; tags describe the fitted curve by direction and shape.

Growth rescue (activation), inconclusive:
CC1CC(C)CN(C(=O)c2ccc(C(=O)c3ccccc3)cc2)C1 (centres undefined) 58.4% [activator]

Growth rescue (activation), inactive:
O=C(NCCc1ccc(Cl)cc1)c1cnc2sc(N3CCOCC3)nn2c1=O 1.92%
COc1cccc(-c2nc(Oc3cccc(C)c3C)c3ccccc3n2)c1O 4.86%
Cc1ccc(-c2cc(C(=O)Nc3cc([N+](=O)[O-])ccc3C)no2)cc1F 16.9%
O=S(=O)(c1ccc(F)c(F)c1F)N1CCN(c2ncnc3sccc23)CC1 18.5%
COc1ccc(Cn2c(CCC(=O)Nc3cc(OC)c(OC)c(OC)c3)nc3cccnc32)cc1 18.6%
O=C(O)CCc1ccc(-c2ccc(Cl)cc2)n1CCC(=O)O 4.22%
CCN(Cc1nc2ccccc2c(=O)[nH]1)C(=O)c1cccc(OCc2c(C)noc2C)c1 14.6%
CCOC(=O)c1ccc(NC(=O)CC2C(=O)N(c3ccc(F)cc3)C(=O)N2Cc2cccnc2)cc1 (centres undefined) -3.27%
O=C(Nc1cc(-c2nc3ccccc3o2)ccc1Cl)c1sc2c([N+](=O)[O-])cccc2c1Cl -5.34%
CCCCCc1ccc(-c2cn(CCc3c[nH]c4ccccc34)nn2)cc1 13%

Potency, active:
Cc1cc(C(=O)Nc2ccc(Nc3ccccc3)cc2)ccc1[N+](=O)[O-] 12.6 µM
O=C1C=C(c2cccc(Cl)c2)C[C@@H](c2ccc(F)cc2)C1 22.4 µM
Cc1ccc(Sc2c(C)nn(-c3ccccc3)c2OC(=O)C(C)(C)C)cc1 14.1 µM
CC(C)c1onc(C(=O)Nc2cccc(Cl)c2)c1[N+](=O)[O-] 10 µM
O=C(Nc1nnc(C2CC2)o1)c1ccc(S(=O)(=O)N2CCCc3ccccc32)cc1 17.8 µM
Cc1ccc2c(c1)c1c3n2CCN(C(=O)C2CC2)C3CCC1 (centres undefined) 28.2 µM

Potency, inconclusive:
CCNc1nc(NCC)nc(SCCOC(=O)COc2ccc(Cl)cc2Cl)n1 25.1 µM [activator, single point]
Cn1cccc1/C=C(\C#N)C(N)=S 3.98 µM [activator, partial curve]
O=S(=O)(Nc1ccc2c3c(cccc13)CC2)c1ccc(F)cc1 31.6 µM [activator, single point]
Cc1cccc2sc(N(Cc3cccnc3)C(=O)CCc3ccccc3)nc12 31.6 µM [activator, single point]
Cc1c(NC(=O)/C(C#N)=C/c2ccc(-c3ccc(Cl)c(Cl)c3)o2)c(=O)n(-c2ccccc2)n1C 22.4 µM [activator, single point]
COc1ccccc1N1CCN(c2nc3c(C)cccn3c(=O)c2C=O)CC1 22.4 µM [activator, single point]
COc1ccccc1N(C(=O)NCc1ccccc1)C1=NCC(C)S1 (centres undefined) 35.5 µM [activator, partial curve, poor fit]
COc1ccc(-c2cn[nH]c2-c2ccc(OC)cc2)cc1 35.5 µM [activator, single point]
COc1ccc(-c2nc3ccc(C)cn3c2Cc2ccc(C)cc2)cc1OC 12.6 µM [activator, partial curve, poor fit]
Cc1cc(C(=O)COc2cccnc2[N+](=O)[O-])c(C)n1-c1ccccc1F 25.1 µM [activator, partial curve]
COc1ccc(NC(=O)CN(C)C(=O)c2sc3ccccc3c2Cl)cc1 11.2 µM [activator, partial curve]
Cc1ccc(N2CC(c3nc4ccccc4n3C)CC2=O)cc1C (centres undefined) 5.62 µM [activator, partial curve, poor fit]
COCCCNC(=O)c1cccc2c(-c3ccc(OC)cc3C)coc12 25.1 µM [activator, single point]
Nc1cccnc1Sc1cc(Cl)cc(Cl)c1 12.6 µM [activator, partial curve]
COc1cccc(/C=N/n2c(C3CCCCC3)n[nH]c2=S)c1 28.2 µM [activator, partial curve]
CCN(C(=O)c1cc2c(=O)n3ccccc3nc2n1C)C1CCCCC1 14.1 µM [activator, single point]
CCS(=O)(=O)N1CCC(C(=O)Oc2ccccc2Cl)CC1 7.08 µM [activator, full curve, poor fit]
CCN1CCN(c2ccc(N3CCN(S(=O)(=O)c4cc([N+](=O)[O-])ccc4C)CC3)nn2)CC1 3.16 µM [activator, single point]
COc1ccc(CCNC(=O)c2cccs2)cc1 3.16 µM [activator, single point]
COc1ccc(-c2nc(SCC(=O)NC3CCCC3)c(-c3ccc(F)cc3)[nH]2)cc1 35.5 µM [activator, partial curve]
O=C(/C(=C/c1ccc(Cl)cc1)c1nc2ccccc2[nH]1)c1ccccc1 1 µM [activator, full curve, poor fit]
O=C(OCc1ccc(Br)cc1)c1cc([N+](=O)[O-])ccc1N1CCOCC1 20 µM [activator, partial curve]
Cc1c(OCC(=O)Nc2cccnc2)ccc2c3c(c(=O)oc12)CCC3 4.47 µM [activator, partial curve]
CC(C)(C)OC(=O)N1CCC(c2c(C(=O)NCc3cccc(Cl)c3)cnn2-c2ccc(F)cc2)CC1 14.1 µM [activator, partial curve, poor fit]
CSc1nsc(SC)c1NC(=O)OC1CCCCC1 31.6 µM [activator, partial curve]
O=C(Nc1ccc(Cl)cn1)C1CCN(c2ncnc3c2nc2n3CCCCC2)CC1 15.8 µM [activator, single point]
Cc1ccc(C(=O)COC(=O)c2nc(Cl)ccc2Cl)cc1 17.8 µM [activator, single point]
